The campaign covered roughly 310,000 compounds. About 2,200 (0.71%) showed an effect of 50% or more. The effect is printed as a negative number. This is one part of the list.
target: human ether-à-go-go-related gene (hERG) potassium channel (human, UniProt Q12809); test: primary screen, population patch clamp on CHO cells stably expressing hERG
Sequence (Q12809 whole entry, looked up): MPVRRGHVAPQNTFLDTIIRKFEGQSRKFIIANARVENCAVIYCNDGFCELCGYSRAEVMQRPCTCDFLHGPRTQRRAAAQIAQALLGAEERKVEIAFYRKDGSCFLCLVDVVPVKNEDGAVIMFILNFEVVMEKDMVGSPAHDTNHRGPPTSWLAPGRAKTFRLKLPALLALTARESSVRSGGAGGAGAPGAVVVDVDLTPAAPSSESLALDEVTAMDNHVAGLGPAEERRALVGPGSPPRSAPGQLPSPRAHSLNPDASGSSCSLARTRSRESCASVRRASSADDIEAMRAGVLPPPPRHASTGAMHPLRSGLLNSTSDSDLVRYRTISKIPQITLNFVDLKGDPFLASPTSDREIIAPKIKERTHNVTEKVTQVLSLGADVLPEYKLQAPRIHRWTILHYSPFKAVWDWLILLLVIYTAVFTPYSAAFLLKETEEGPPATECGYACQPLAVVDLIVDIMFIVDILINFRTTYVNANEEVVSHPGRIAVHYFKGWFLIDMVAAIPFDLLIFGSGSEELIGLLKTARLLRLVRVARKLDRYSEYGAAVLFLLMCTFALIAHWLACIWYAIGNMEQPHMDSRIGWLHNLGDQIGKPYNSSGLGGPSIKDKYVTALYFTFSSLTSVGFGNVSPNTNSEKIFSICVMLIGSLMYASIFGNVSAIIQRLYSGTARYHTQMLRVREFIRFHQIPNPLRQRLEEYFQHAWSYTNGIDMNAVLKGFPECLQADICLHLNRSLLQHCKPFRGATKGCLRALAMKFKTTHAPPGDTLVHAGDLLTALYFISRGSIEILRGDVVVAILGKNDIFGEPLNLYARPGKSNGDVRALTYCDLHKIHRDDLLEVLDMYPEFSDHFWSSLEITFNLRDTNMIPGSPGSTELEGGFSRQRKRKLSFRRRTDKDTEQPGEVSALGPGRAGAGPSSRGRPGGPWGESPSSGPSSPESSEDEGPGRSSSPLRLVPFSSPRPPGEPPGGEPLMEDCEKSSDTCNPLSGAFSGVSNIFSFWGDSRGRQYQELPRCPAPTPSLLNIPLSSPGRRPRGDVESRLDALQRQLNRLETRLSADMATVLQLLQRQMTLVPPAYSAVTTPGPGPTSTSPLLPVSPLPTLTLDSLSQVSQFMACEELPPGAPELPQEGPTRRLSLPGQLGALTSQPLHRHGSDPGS

Compound | hERG current change (%, negative = inhibition) at 1uM
COC(=O)Cn1c(=NC(=O)C(C)C)sc2c(C)cc(C)cc21 | 12.8%
CCOC(=O)c1nc(Nc2ccccc2C)c2ccccc2n1 | 5.74%
CN1CCC(Oc2ccccc2Sc2ccccc2)CC1.O=C(O)C(=O)O | -14.2%
COc1cccc(/C=C2\SC(N)=NC2=O)c1OS(=O)(=O)c1ccccc1 | 2.6%
CCN1C(=O)C2(C(C#N)=C(N)Oc3n[nH]c(-c4ccccc4)c32)c2ccccc21 (stereo not drawn) | 9.06%
N#Cc1nc(-c2ccc(OCc3ccc(Cl)cc3)cc2)oc1N1CCOCC1 | -0.904%
COc1ccccc1CC(=O)NC1CCC(C)CC1 (stereo not drawn) | 5.51%
O=C(Nc1nc(-c2ccc(Cl)cc2)cs1)c1cccnc1 | 11.4%
Cl.Oc1ccc(CN2CCCCC2)nc1-c1ccccc1 | -7.62%
CNc1nc(Cl)c(SC)c(NCc2cccc(OC)c2)n1 | 13.6%
O=C(N/C(=C\c1ccc([N+](=O)[O-])cc1)C(=O)N1CCCCC1)c1ccc(Br)o1 | -53.4%
COc1ccccc1C(=O)Nc1ccnn1C1CCN(CCCC2CCCC2)CC1 | -93.2%
COCC(=O)OCc1cc2cccc(C)c2[nH]c1=O | 5.1%
Cn1c(/C=N/c2nc3ccccc3[nH]2)nc2ccccc21 | 8.07%
COC(=O)c1sc(NC(=O)C(C)C)c(C(=O)OC)c1C | 11.6%
COc1ccc2c(c1)OC[C@H]1[C@@H]2N2C(=O)CNC(=O)[C@@]2(C)[C@H]1c1ccccc1 | 19.8%
c1ccc(-c2nc3ccccc3o2)nc1 | 0.456%
Br.COc1ccc(C(=O)Cn2c(NCCO)nc3ccccc32)cc1OC | 1.77%
O=C(O)CCCC(=O)Nc1ccc(Sc2ccc([N+](=O)[O-])cc2)cc1 | 7.12%
CN(C)c1ccc(/C=N/NC(=O)c2cccc(C(=O)N/N=C/c3ccc(N(C)C)cc3)n2)cc1 | 4.04%
CCOc1cc(N2CCOCC2)c(OCC)cc1NC(=O)c1cc(C)cc(C)c1 | 6.66%
CCCCNCc1cc(Br)c(OCc2cccs2)c(OC)c1.Cl | -3.22%
CCCC12CN3CC(C)(CN(C1)C3c1cccs1)C2=O (stereo not drawn) | 3.56%

Compound | hERG current change (%, negative = inhibition) at 1uM
NC(=O)C1CCN(c2ncc(C(F)(F)F)cc2Cl)CC1 | 10.6%
Cc1ccc(NC(=O)c2cc(=O)c3ccccc3o2)cc1 | 8.94%
Cc1cc(C(=O)Nc2nnc(C(F)(F)F)s2)cs1 | 5.94%
CC(C)Oc1ccc(Cl)cc1Nc1nc(NCCO)nc(N2CCCC2)n1 | 7.27%
Cc1ccc(-n2ncc3c(Nc4cccc(C(=O)O)c4)ncnc32)cc1 | 12.4%
COC(=O)C1=NN(N=O)C2(CC(=O)N(c3cc(C)cc(C)c3)C2=O)C1 (stereo not drawn) | 9.48%
O=C1CC(=O)Nc2cc(S(=O)(=O)NCc3cccs3)ccc2N1 | 6.44%
COc1cccc(OC)c1C(=O)OCC(=O)NCCCc1ccccc1 | 7.04%
O=C(NCCCSc1ccccc1)c1cc(Cl)ccc1O | 13%
CC(=O)c1ccc(NC(=O)CSc2nnc(-c3ccoc3C)n2Cc2ccccc2)cc1 | 1.9%
Cc1ccccc1C(=O)Nc1nncs1 | 15.9%
CCc1nnc(NC(=O)Cc2cc(OC)c(OC)c(OC)c2)s1 | 2.08%
COc1ccccc1Cn1nc(C(=O)O)c2ccccc2c1=O | 18.7%
COc1ccc(-c2nnc(-c3ccc(F)cc3)o2)cc1 | 13.1%
CCCSc1nc(O)c(C2OC(=O)c3c2ccc(OC)c3OC)c(=O)n1-c1ccccc1 (stereo not drawn) | 25.6%
CCC(C)C(=O)Nc1nnc(CCc2ccccc2)s1 (stereo not drawn) | 9.3%
Cn1ncc(Cl)c1C(=O)N/N=C/c1cccc(OC2CSC2)c1 | 9.83%
CC(C)(C)C(=O)NC(n1cnc2c(N3CCOCC3)ncnc21)C(Cl)(Cl)Cl (stereo not drawn) | 6.82%
COc1cc(C(=O)NCc2cccc3ccccc23)ccc1OCc1ccccc1 | 21.6%
CNC[C@H](NC[C@@H](NCCCc1ccccc1)c1ccccc1)[C@H](C)O | 12.1%
O=C(NCc1ccccc1)C1=C[C@@H](C2CCCCC2)C[C@@H](OCc2ccc(CO)cc2)O1 | 17.1%
CC(=O)Nc1cccc(C(=O)OCCCOc2ccc(F)cc2)c1 | 7.94%
